Results are given in words; binding and its absence hold for the method and conditions named. Binding seen in cells or lysates may run through a third protein. Where a sequence is shown, tags or fusion partners need not be part of it.
Molecular target: T1, human iRhom2^Δ201-300-3xHA (human) (UniProt Q6PJF5)
T1 sequence: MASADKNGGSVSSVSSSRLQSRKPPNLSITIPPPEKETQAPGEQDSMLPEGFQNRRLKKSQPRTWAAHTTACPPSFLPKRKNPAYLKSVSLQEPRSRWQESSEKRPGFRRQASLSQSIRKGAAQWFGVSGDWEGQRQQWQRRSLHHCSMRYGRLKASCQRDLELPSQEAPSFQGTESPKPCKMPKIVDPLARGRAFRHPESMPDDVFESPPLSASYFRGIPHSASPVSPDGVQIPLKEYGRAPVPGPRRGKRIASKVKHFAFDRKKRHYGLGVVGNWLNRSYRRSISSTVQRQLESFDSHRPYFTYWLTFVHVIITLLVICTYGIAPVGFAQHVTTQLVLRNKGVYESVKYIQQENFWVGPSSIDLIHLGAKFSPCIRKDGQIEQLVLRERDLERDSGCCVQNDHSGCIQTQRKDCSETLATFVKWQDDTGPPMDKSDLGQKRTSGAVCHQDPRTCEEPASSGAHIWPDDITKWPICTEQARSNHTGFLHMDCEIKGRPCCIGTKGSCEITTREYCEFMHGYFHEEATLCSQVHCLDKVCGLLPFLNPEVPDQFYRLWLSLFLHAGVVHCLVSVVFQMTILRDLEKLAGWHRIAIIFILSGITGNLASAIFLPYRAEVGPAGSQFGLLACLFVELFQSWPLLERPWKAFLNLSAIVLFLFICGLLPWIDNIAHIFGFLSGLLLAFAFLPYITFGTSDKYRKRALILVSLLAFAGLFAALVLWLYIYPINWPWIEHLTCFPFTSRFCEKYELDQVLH
Assay: co-IP; lysates in 1% Triton X-100, 150 mM NaCl, 50 mM Tris-HCl pH 7.5; anti-HA or anti-V5 magnetic beads 1 hr at 4°C; wash with 300 mM NaCl; western blot; HEK293T cells (wild type, ADAM17 KO, FRMD8 KO, or iRhom1/2 DKO reconstituted with iRhom2^WT-3xHA; with or without 200 nM PMA for 30 min)

B1: human FRMD8-V5 (protein, UniProt Q9BZ67-1 1-464)
chain: MDGTEGSAGQPGPAERSHRSSVSSVGARAADVLVYLADDTVVPLAVENLPSLSAHELHRAVREVLQLPDIALDVFALWLVSPLLEVQLKPKHQPYKLGRQWPELLLRFTSAPDDDVAMDEPFLQFRRNVFFPKRRELQIHDEEVLRLLYEEAKGNVLAARYPCDVEDCEALGALVCRVQLGPYQPGRPAACDLREKLDSFLPAHLCKRGQSLFAALRGRGARAGPGEQGLLNAYRQVQEVSSDGGCEAALGTHYRAYLLKCHELPFYGCAFFHGEVDKPAQGFLHRGGRKPVSVAISLEGVHVIDSREKHVLLGLRFQELSWDHTSPEEEEPILWLEFDGDSEGTPVNKLLKIYSKQAELMSSLIEYCIELSQAAEPAGPQDSATGSPSDPSSSLAPVQRPKLRRQGSVVSSRIQHLSTIDYVEDGKGIRRVKPKRTTSFFSRQLSLGQGSYTVVQPGDSLEQG
**Q.** B1 was tested. Which binding did it give?
**A.** no binding
